The record followed here is paper PMC5062570 (Nature Communications, 2016).

SMILES strings stand for the structures. “And” between values parts separate entries of the source, which are not always exact repeats. Identical values can stand only once.

Assay [1] deals with PF-7802-labelled proteins in ARPE-19 cells (Homo sapiens, UniProt P13010). To be noted: protein XRCC5 X-ray repair cross-complementing protein 5 (P13010); replicate R1.
Assay [2] has as its target PF-7802-labelled proteins in ARPE-19 cells (Homo sapiens, UniProt P43243). The note with it: protein MATR3 Matrin-3 (P43243); replicates in separate columns.
The target in assay [3] is PF-7802-labelled proteins in ARPE-19 cells (Homo sapiens, UniProt Q5TEC6). To be noted: protein HIST2H3PS2 Histone H3 (Q5TEC6); one column per replicate.
Assay [4] has as its target PF-7802-labelled proteins in ARPE-19 cells (Homo sapiens, UniProt P31930). The note with it: UQCRC1 Cytochrome b-c1 complex subunit 1, mitochondrial (P31930).
For assay [5], the target named is T1, PF-7802-labelled proteins in ARPE-19 cells (Homo sapiens, UniProt P27824).
T1 sequence (P27824 21-592): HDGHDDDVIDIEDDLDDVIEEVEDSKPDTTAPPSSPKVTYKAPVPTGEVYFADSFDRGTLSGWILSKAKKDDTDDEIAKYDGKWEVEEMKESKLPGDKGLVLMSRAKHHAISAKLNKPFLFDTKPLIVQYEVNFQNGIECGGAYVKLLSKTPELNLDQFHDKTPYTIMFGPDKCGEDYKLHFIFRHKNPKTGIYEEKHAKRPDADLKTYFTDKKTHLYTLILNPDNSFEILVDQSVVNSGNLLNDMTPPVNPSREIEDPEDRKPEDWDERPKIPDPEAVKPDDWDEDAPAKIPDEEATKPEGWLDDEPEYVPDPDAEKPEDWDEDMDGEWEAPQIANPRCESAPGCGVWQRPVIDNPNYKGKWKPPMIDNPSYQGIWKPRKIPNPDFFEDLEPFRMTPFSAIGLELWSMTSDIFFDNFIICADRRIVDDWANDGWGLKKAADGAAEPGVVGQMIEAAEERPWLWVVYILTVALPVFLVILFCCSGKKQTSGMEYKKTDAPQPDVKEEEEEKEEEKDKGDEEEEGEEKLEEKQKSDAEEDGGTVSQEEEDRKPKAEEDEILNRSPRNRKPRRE
The note with it: for Median SILAC Ratio (Heavy/Light): protein CANX Calnexin (P27824).

Assay [6] addresses PF-7802-labelled proteins in ARPE-19 cells (Homo sapiens, UniProt Q13813). The note with it: SPTAN1 Spectrin alpha chain, non-erythrocytic 1 (Q13813).
Assay [7] deals with T2, PF-7802-labelled proteins in ARPE-19 cells (Homo sapiens, UniProt P24752).
T2 sequence (P24752 34-427): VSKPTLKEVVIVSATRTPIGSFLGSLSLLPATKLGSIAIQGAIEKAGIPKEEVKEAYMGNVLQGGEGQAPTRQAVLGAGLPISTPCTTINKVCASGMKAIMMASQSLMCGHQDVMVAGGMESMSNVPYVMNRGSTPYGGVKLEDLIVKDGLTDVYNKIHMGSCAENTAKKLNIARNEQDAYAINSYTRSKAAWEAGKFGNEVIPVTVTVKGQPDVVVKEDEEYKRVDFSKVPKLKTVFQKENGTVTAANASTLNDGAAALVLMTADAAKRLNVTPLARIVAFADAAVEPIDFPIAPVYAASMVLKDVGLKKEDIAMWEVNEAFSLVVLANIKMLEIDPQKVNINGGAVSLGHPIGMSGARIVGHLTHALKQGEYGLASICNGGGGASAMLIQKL
To be noted: for Median SILAC Ratio (Heavy/Light): protein ACAT1 Acetyl-CoA acetyltransferase, mitochondrial (P24752).

Assay [8] deals with PF-7802-labelled proteins in ARPE-19 cells (Homo sapiens, UniProt P30038). The note with it: protein ALDH4A1 Delta-1-pyrroline-5-carboxylate dehydrogenase, mitochondrial (P30038).
Assay [9] concerns the target PF-7802-labelled proteins in ARPE-19 cells (Homo sapiens, UniProt P46781). To be noted: protein RPS9 40S ribosomal protein S9, P46781.
Assay [10] addresses PF-7802-labelled proteins in ARPE-19 cells (Homo sapiens, UniProt P63162). To be noted: SNRPN Small nuclear ribonucleoprotein-associated protein N (P63162).
Assay [11] concerns the target PF-7802-labelled proteins in ARPE-19 cells (Homo sapiens, UniProt P40227). To be noted: protein CCT6A T-complex protein 1 subunit zeta (P40227).
Assay [12] deals with PF-7802-labelled proteins in ARPE-19 cells (Homo sapiens, UniProt Q9NYU2). To be noted: UGGT1 UDP-glucose:glycoprotein glucosyltransferase 1 (Q9NYU2).
Assay [13] deals with PF-7802-labelled proteins in ARPE-19 cells (Homo sapiens, UniProt P61026). To be noted: protein RAB10 Ras-related protein Rab-10, P61026.
Assay [14] deals with PF-7802-labelled proteins in ARPE-19 cells (Homo sapiens, UniProt P60174). The note with it: TPI1 Triosephosphate isomerase (P60174).
For assay [15], the target named is PF-7802-labelled proteins in ARPE-19 cells (Homo sapiens, UniProt O60716). To be noted: protein CTNND1 Catenin delta-1 (O60716).
For assay [16], the target named is PF-7802-labelled proteins in ARPE-19 cells (Homo sapiens, UniProt Q15233). The note with it: protein NONO Non-POU domain-containing octamer-binding protein (Q15233); replicates in separate columns.
Assay [17] has as its target PF-7802-labelled proteins in ARPE-19 cells (Homo sapiens, UniProt P54886). The note with it: protein ALDH18A1 Delta-1-pyrroline-5-carboxylate synthase (P54886).
For assay [18], the target named is PF-7802-labelled proteins in ARPE-19 cells (Homo sapiens, UniProt P61313). The note with it: protein RPL15 60S ribosomal protein L15, P61313.
The target of assay [19] is PF-7802-labelled proteins in ARPE-19 cells (Homo sapiens, UniProt Q9P035). To be noted: protein PTPLAD1 3-hydroxyacyl-CoA dehydratase 3, Q9P035.
Chain of UniProt Q9P035 (Q9P035 whole entry): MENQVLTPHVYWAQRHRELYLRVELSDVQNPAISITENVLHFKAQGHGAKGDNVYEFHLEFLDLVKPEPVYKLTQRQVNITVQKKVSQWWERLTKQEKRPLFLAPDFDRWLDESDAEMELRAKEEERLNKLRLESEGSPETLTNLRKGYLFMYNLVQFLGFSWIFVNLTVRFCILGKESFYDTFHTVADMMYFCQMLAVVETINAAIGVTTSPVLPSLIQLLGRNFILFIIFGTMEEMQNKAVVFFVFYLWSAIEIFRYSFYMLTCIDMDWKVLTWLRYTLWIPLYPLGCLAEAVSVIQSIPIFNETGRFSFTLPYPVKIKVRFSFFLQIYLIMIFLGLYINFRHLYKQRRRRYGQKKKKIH

Chain of UniProt P60174 (P60174 whole entry): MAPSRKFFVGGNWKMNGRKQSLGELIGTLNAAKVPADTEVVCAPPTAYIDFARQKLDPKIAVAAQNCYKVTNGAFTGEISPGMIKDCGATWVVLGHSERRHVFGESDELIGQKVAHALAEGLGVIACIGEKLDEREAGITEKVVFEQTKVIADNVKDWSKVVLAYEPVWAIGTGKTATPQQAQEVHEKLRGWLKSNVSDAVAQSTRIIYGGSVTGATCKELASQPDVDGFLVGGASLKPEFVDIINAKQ
Chain of UniProt Q15233 (Q15233 whole entry, the tested form may be a part): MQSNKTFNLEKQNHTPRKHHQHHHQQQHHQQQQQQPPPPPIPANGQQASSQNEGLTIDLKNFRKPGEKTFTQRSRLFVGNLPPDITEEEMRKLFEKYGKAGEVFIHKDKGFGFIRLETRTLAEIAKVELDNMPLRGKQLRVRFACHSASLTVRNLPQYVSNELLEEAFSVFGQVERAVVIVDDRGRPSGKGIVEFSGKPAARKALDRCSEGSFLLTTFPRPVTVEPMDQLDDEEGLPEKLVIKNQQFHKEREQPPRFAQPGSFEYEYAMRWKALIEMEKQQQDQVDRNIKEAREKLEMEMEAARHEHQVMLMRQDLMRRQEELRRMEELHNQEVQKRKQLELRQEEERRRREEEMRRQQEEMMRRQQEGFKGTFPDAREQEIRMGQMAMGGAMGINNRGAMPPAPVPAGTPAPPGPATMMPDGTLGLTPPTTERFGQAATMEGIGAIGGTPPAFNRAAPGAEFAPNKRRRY
Chain of UniProt P61026 (P61026 whole entry): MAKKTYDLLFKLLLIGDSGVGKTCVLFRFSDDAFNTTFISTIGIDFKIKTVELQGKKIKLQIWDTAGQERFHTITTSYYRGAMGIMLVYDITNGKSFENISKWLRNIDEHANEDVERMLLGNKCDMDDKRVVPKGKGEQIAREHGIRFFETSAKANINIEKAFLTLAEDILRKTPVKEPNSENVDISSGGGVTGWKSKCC
Chain of UniProt Q13813 (Q13813 whole entry): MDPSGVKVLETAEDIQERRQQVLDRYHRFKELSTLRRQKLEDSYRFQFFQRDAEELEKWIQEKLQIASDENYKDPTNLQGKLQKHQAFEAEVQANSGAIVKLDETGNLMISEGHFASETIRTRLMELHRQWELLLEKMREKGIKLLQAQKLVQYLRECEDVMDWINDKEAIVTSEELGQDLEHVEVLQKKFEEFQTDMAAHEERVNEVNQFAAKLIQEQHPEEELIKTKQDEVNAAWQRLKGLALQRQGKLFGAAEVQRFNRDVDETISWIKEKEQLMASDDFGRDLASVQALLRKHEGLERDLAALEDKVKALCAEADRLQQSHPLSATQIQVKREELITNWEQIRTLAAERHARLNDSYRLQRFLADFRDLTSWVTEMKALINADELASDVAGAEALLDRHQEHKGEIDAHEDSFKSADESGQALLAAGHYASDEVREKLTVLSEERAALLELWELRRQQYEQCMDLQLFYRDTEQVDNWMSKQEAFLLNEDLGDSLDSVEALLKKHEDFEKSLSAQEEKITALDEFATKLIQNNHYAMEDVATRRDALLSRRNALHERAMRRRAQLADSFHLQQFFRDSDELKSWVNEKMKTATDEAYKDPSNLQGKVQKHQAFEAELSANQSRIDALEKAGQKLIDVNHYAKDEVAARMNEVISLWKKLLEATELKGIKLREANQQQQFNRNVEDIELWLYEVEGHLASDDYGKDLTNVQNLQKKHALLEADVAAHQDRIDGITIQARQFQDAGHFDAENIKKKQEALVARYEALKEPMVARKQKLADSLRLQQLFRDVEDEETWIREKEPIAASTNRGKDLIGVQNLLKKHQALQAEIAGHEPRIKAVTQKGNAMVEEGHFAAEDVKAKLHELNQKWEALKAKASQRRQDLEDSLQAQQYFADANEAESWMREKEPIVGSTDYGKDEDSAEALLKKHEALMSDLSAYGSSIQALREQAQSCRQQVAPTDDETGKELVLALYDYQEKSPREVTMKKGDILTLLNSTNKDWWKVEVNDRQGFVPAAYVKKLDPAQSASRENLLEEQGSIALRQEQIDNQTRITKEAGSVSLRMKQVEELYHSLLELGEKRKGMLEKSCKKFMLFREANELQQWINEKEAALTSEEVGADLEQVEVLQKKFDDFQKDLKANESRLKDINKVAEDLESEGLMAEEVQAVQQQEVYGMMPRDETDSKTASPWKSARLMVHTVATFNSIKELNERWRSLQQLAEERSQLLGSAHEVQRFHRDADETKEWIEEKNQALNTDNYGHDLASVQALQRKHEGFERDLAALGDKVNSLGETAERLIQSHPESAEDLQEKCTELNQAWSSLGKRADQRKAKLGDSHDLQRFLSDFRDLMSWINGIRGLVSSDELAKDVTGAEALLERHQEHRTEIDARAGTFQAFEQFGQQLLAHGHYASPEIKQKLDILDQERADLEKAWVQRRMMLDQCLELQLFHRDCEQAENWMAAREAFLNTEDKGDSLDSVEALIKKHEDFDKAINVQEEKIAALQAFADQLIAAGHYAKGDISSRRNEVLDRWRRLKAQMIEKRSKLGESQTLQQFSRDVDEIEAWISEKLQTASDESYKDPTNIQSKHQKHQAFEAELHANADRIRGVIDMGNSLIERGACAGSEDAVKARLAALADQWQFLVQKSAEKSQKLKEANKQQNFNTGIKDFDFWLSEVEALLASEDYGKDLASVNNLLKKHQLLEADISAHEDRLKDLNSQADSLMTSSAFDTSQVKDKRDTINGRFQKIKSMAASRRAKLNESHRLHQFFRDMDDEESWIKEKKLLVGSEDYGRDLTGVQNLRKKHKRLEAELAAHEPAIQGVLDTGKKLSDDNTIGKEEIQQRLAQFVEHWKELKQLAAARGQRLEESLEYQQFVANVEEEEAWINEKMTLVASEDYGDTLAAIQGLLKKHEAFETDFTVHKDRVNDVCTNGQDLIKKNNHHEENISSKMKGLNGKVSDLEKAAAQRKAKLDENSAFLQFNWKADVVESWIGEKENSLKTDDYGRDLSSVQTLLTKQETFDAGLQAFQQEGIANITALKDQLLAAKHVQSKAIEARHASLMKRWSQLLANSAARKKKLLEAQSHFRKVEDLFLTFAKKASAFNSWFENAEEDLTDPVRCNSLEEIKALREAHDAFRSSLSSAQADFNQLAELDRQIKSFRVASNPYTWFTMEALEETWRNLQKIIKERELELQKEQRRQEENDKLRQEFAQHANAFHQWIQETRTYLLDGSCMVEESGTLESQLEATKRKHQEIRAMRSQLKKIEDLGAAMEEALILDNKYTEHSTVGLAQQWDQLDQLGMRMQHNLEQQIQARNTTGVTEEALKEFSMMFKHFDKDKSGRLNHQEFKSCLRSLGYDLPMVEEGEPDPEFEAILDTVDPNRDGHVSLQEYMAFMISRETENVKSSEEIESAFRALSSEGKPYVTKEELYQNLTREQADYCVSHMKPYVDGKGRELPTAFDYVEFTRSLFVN
Chain of UniProt P40227 (P40227 whole entry): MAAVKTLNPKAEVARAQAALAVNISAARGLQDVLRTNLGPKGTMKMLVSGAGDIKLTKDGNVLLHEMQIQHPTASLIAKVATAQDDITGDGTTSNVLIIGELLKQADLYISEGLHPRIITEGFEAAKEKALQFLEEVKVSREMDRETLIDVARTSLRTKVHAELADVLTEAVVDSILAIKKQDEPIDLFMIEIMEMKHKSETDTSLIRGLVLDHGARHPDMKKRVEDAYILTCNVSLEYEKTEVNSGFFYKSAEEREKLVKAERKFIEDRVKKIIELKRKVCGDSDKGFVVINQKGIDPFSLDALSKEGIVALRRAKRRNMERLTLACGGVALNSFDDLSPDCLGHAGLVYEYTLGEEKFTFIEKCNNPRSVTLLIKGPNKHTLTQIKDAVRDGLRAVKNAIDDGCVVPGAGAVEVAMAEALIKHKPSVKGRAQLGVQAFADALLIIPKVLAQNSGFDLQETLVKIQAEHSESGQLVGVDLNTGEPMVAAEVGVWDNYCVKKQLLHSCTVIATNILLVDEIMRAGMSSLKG
Chain of UniProt P13010 (P13010 whole entry): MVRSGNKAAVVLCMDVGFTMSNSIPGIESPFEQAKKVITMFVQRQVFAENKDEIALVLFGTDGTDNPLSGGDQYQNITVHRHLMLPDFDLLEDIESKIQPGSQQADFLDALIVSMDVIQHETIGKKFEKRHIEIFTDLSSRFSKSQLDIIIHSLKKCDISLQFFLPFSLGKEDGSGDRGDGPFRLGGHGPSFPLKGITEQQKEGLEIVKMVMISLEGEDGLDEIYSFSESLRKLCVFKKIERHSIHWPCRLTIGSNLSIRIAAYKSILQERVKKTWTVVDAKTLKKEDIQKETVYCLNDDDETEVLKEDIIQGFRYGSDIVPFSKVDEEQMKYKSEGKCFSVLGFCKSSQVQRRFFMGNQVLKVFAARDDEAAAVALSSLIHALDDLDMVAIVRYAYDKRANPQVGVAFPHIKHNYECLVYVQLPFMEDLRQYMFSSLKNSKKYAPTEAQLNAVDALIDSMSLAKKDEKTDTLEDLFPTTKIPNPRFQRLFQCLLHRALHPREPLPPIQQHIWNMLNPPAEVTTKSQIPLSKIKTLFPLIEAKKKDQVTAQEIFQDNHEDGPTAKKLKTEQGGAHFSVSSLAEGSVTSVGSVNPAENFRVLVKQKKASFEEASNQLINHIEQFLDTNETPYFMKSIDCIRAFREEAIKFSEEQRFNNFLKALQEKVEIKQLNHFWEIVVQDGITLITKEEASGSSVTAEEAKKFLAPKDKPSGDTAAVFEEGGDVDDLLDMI

As to `CNC1CCN(C(=O)C[C@@H](Cc2ccccc2)C(=O)N[C@@H](CSC)C(=O)N[C@@H](CC2CCCCC2)[C@@H](O)C(=O)OC(C)C)CC1` [CP-108671, reference compound], the “Median SILAC Ratio (Heavy/Light)” value was 1.1096 in assay [1]; 1.1401 in assay [2]; 1.079 in [3]; 0.3005 in assay [4]; 1.045 in assay [5]; 1.201 in assay [6]. Moreover, the “Median SILAC Ratio (Heavy/Light)” value turned out to be 0.9603 in [7]; 0.9934 in assay [8]; 1.945 in assay [9]; 1.054 in assay [10]; 1.435 in [11]; 0.883 in [12]. Besides, the “Median SILAC Ratio (Heavy/Light)” value in assay [13] turned out to be 1.926; in assay [14], 0.3243; in assay [15], 0.5395; in assay [16], 0.9246; in assay [17], 1.676; in [18], 1.858. Besides, in [19], the “Median SILAC Ratio (Heavy/Light)” value is recorded as 0.9337. Besides, the “SILAC ratio (DMSO/CP-108671)” value in assay [5] (P27824 CANX Calnexin) worked out at 0.96; in [7] (P24752 ACAT1 Acetyl-CoA acetyltransferase, mitochondrial), 1.04.
For `Cc1cc([C@H]2C[C@H]3[C@@H](C)SC(N)=N[C@@]3(c3ccc(F)cc3F)CO2)on1` [PF-9283], the “Median SILAC Ratio (Heavy/Light)” value in [1] was found to be 1.126; in assay [2] it was 1.224; in [3] it was 1.319; in assay [4], 1.2091; in assay [5] it was 1.369; in assay [6], 1.332. The “Median SILAC Ratio (Heavy/Light)” value was 1.113 in [7]; 1.729 in assay [8]; 1.686 in assay [9]; 1.326 in [10]; 1.475 in assay [11]; 0.9773 in assay [12]. In addition, the “Median SILAC Ratio (Heavy/Light)” value in assay [13] was 1.403; in assay [14] it was 1.734 and 1.507 and 1.332; in [15] it was 0.9354; in [16], 1.217 and 0.815 and 1.108; in assay [17], 1.64; in assay [18] it was 1.885 and 1.232 and 1.67. Besides, the “Median SILAC Ratio (Heavy/Light)” value in assay [19] turned out to be 1.107.
